# Assay results reported in patent US20250352659A1, “SELF-STABILIZING LINKER CONJUGATES” (priority 2023, published 2025).
# B1: ADC4-16o: Ifinatamab ADC of Table 4, open-ring (RO) conjugator (conjugate)
# heavy: QVQLVQSGAEVKKPGSSVKVSCKASGYTFTNYVMHWVRQAPGQGLEWMGYINPYNDDVKYNEKFKGRVTITADESTSTAYMELSSLRSEDTAVYYCARWGYYGSPLYYFDYWGQGTLVTVSSASTKGPSVFPLAPSSKSTSGGTAALGCLVKDYFPEPVTVSWNSGALTSGVHTFPAVLQSSGLYSLSSVVTVPSSSLGTQTYICNVNHKPSNTKVDKRV[human IgG1 Fc skipped]
# light: EIVLTQSPATLSLSPGERATLSCRASSRLIYMHWYQQKPGQAPRPLIYATSNLASGIPARFSGSGSGTDFTLTISSLEPEDFAVYYCQQWNSNPPTFGQGTKVEIKRTVAAPSVFIFPPSDEQLKSGTASVVCLLNNFYPREAKVQWKVDNALQSGNSQESVTEQDSKDSTYSLSSTLTLSKADYEKHKVYACEVTHQGLSSPVTKSFNRGEC
# B2: ADC4-10o: Ifinatamab ADC of Table 4, open-ring (RO) conjugator (conjugate)
# heavy: QVQLVQSGAEVKKPGSSVKVSCKASGYTFTNYVMHWVRQAPGQGLEWMGYINPYNDDVKYNEKFKGRVTITADESTSTAYMELSSLRSEDTAVYYCARWGYYGSPLYYFDYWGQGTLVTVSSASTKGPSVFPLAPSSKSTSGGTAALGCLVKDYFPEPVTVSWNSGALTSGVHTFPAVLQSSGLYSLSSVVTVPSSSLGTQTYICNVNHKPSNTKVDKRV[human IgG1 Fc skipped]
# light: EIVLTQSPATLSLSPGERATLSCRASSRLIYMHWYQQKPGQAPRPLIYATSNLASGIPARFSGSGSGTDFTLTISSLEPEDFAVYYCQQWNSNPPTFGQGTKVEIKRTVAAPSVFIFPPSDEQLKSGTASVVCLLNNFYPREAKVQWKVDNALQSGNSQESVTEQDSKDSTYSLSSTLTLSKADYEKHKVYACEVTHQGLSSPVTKSFNRGEC
# B3: ADC4-13o: Ifinatamab ADC of Table 4, open-ring (RO) conjugator (conjugate)
# heavy: QVQLVQSGAEVKKPGSSVKVSCKASGYTFTNYVMHWVRQAPGQGLEWMGYINPYNDDVKYNEKFKGRVTITADESTSTAYMELSSLRSEDTAVYYCARWGYYGSPLYYFDYWGQGTLVTVSSASTKGPSVFPLAPSSKSTSGGTAALGCLVKDYFPEPVTVSWNSGALTSGVHTFPAVLQSSGLYSLSSVVTVPSSSLGTQTYICNVNHKPSNTKVDKRV[human IgG1 Fc skipped]
# light: EIVLTQSPATLSLSPGERATLSCRASSRLIYMHWYQQKPGQAPRPLIYATSNLASGIPARFSGSGSGTDFTLTISSLEPEDFAVYYCQQWNSNPPTFGQGTKVEIKRTVAAPSVFIFPPSDEQLKSGTASVVCLLNNFYPREAKVQWKVDNALQSGNSQESVTEQDSKDSTYSLSSTLTLSKADYEKHKVYACEVTHQGLSSPVTKSFNRGEC
# B4: ADC4-8o: Ifinatamab ADC of Table 4, ring-opened maleimide (conjugate)
# heavy: QVQLVQSGAEVKKPGSSVKVSCKASGYTFTNYVMHWVRQAPGQGLEWMGYINPYNDDVKYNEKFKGRVTITADESTSTAYMELSSLRSEDTAVYYCARWGYYGSPLYYFDYWGQGTLVTVSSASTKGPSVFPLAPSSKSTSGGTAALGCLVKDYFPEPVTVSWNSGALTSGVHTFPAVLQSSGLYSLSSVVTVPSSSLGTQTYICNVNHKPSNTKVDKRV[human IgG1 Fc skipped]
# light: EIVLTQSPATLSLSPGERATLSCRASSRLIYMHWYQQKPGQAPRPLIYATSNLASGIPARFSGSGSGTDFTLTISSLEPEDFAVYYCQQWNSNPPTFGQGTKVEIKRTVAAPSVFIFPPSDEQLKSGTASVVCLLNNFYPREAKVQWKVDNALQSGNSQESVTEQDSKDSTYSLSSTLTLSKADYEKHKVYACEVTHQGLSSPVTKSFNRGEC
# B5: ADC4-9o: Ifinatamab ADC of Table 4, ring-opened maleimide (conjugate)
# heavy: QVQLVQSGAEVKKPGSSVKVSCKASGYTFTNYVMHWVRQAPGQGLEWMGYINPYNDDVKYNEKFKGRVTITADESTSTAYMELSSLRSEDTAVYYCARWGYYGSPLYYFDYWGQGTLVTVSSASTKGPSVFPLAPSSKSTSGGTAALGCLVKDYFPEPVTVSWNSGALTSGVHTFPAVLQSSGLYSLSSVVTVPSSSLGTQTYICNVNHKPSNTKVDKRV[human IgG1 Fc skipped]
# light: EIVLTQSPATLSLSPGERATLSCRASSRLIYMHWYQQKPGQAPRPLIYATSNLASGIPARFSGSGSGTDFTLTISSLEPEDFAVYYCQQWNSNPPTFGQGTKVEIKRTVAAPSVFIFPPSDEQLKSGTASVVCLLNNFYPREAKVQWKVDNALQSGNSQESVTEQDSKDSTYSLSSTLTLSKADYEKHKVYACEVTHQGLSSPVTKSFNRGEC
# B6: ADC4-B: Ifinatamab (anti-B7H3) ADC with a non-RO conjugator, comparator (conjugate)
# heavy: QVQLVQSGAEVKKPGSSVKVSCKASGYTFTNYVMHWVRQAPGQGLEWMGYINPYNDDVKYNEKFKGRVTITADESTSTAYMELSSLRSEDTAVYYCARWGYYGSPLYYFDYWGQGTLVTVSSASTKGPSVFPLAPSSKSTSGGTAALGCLVKDYFPEPVTVSWNSGALTSGVHTFPAVLQSSGLYSLSSVVTVPSSSLGTQTYICNVNHKPSNTKVDKRV[human IgG1 Fc skipped]
# light: EIVLTQSPATLSLSPGERATLSCRASSRLIYMHWYQQKPGQAPRPLIYATSNLASGIPARFSGSGSGTDFTLTISSLEPEDFAVYYCQQWNSNPPTFGQGTKVEIKRTVAAPSVFIFPPSDEQLKSGTASVVCLLNNFYPREAKVQWKVDNALQSGNSQESVTEQDSKDSTYSLSSTLTLSKADYEKHKVYACEVTHQGLSSPVTKSFNRGEC
# B7: ADC4-11o: Ifinatamab ADC of Table 4, open-ring (RO) conjugator (conjugate)
# heavy: QVQLVQSGAEVKKPGSSVKVSCKASGYTFTNYVMHWVRQAPGQGLEWMGYINPYNDDVKYNEKFKGRVTITADESTSTAYMELSSLRSEDTAVYYCARWGYYGSPLYYFDYWGQGTLVTVSSASTKGPSVFPLAPSSKSTSGGTAALGCLVKDYFPEPVTVSWNSGALTSGVHTFPAVLQSSGLYSLSSVVTVPSSSLGTQTYICNVNHKPSNTKVDKRV[human IgG1 Fc skipped]
# light: EIVLTQSPATLSLSPGERATLSCRASSRLIYMHWYQQKPGQAPRPLIYATSNLASGIPARFSGSGSGTDFTLTISSLEPEDFAVYYCQQWNSNPPTFGQGTKVEIKRTVAAPSVFIFPPSDEQLKSGTASVVCLLNNFYPREAKVQWKVDNALQSGNSQESVTEQDSKDSTYSLSSTLTLSKADYEKHKVYACEVTHQGLSSPVTKSFNRGEC
# Tests used:
# H1650 cells = test: ADCs in vivo efficacy study, H1650 model of lung cancer; set-up: species or system BALB/c Nude mice; conditions: for anti-tumor activity compared with non-RO conjugator ADC (ADC4-B): H1650 human lung cancer model (FIG. 44); for anti-tumor activity: H1650 human lung cancer model, i.v., 1 or 3 mg/kg QW*2 (FIG. 44)
# Description: Female BALB/c Nude mice were subcutaneously implanted with 3× 10^6 H1650 cells per 200 μL PBS/matrigel in the right flank. After inoculation, tumor volumes were determined twice weekly in two dimensions using a caliper and were expressed in mm^3 using the formula V=0.5 (a×b^2) where a and b are the long and short diameters of the tumor, respectively. […] Partial regression (PR) was defined as tumor volume smaller than 50% of the starting tumor volume on the first day of dosing in three consecutive measurements and complete regression (CR) was defined as tumor volume less than 14 mm^3 in three consecutive measurements. Data are presented as mean tumor volume±standard error of the mean (SEM). Tumor growth inhibition (TGI) is calculated using the following formula: […]
# [1] = ADC hydrophobicity evaluation by HIC (Method 1); format: physicochemical; conditions: later retention time = higher hydrophobic property
# Description: HIC method: HPLC analysis was carried out under the following measurement conditions:
# • HPLC system: Waters ACQUITY ARC HPLC System • Detector: measurement wavelength: 280 nm • Column: Tosoh Bioscience 4.6 μm ID×3.5 cm, 2.5 μm butyl-nonporous resin column • Column temperature: 25° C. • Mobile phase A: 1.5 M ammonium sulfate, 50 mM phosphate buffer, pH 7.0 • Mobile phase B: 50 mM phosphate buffer, 25% (V/V) isopropanol, pH 7.0 • Gradient program: 0% B-0% B (0 min-2 min), 0% B-100% B (2 min-15 min), 100% B-100% B (15 min-16 min), 100% B-0% B (16 min-17 min), 0% B-0% B (17 min-20 min) • Injected sample amount: 20 μg
# ADC hydrophobicity evaluation: An ADC with a higher hydrophobic property would appear with a later retention time from HIC (hydrophobicity interaction column) chromatography. Results are presented in Table 4 using the DAR8 peak as a reference.
# [2] = ADC stability in pH 7.4 and 8.0 GSH buffer; format: physicochemical; conditions: for MS DAR: 10 mM GSH
# Description: (§1) After the conjugation and hydrolysis steps described above (see “DAR8 antibody drug conjugate/conjugator-antibody conjugate preparation”), conjugator-antibody conjugates were incubated in formulation buffer (pH 5.5 20 mM histidine buffer) or glutathione (GSH) buffer (pH 7.4 or 8.0), and the solutions were left at 22 or 37° C. for 1˜168 h. Hydrolysis status was monitored via reduced LCMS. Results are presented in Table 6, Table 7, and FIGS. 2A-23B.
# (§2) Results of stability assessments of ADCs in GSH solution or formulation buffer are presented in Table 8 and Table 9, respectively, and FIGS. 24A-37B.
# [3] = ADC stability in formulation buffer (20 mM histidine buffer); format: physicochemical; conditions: for MS DAR-T = 0 h / MS DAR-T = 168 h: pH 5.5, 22 °C
# Description: as §1, §2
molecule,measurement,setting,value
B1,anti-tumor activity compared with non-RO conjugator ADC (ADC4-B),H1650 cells,superior
same,anti-tumor activity,H1650 cells,potent anti-tumor activities
same,DAR8 Species HIC Retention Time (min) (Method 1),[1],9.795 min
same,MS DAR,"[2]; 96 h, pH 7.4, 22 °C",8.14
same,MS DAR,"[2]; 96 h, pH 7.4, 37 °C",8.20
same,MS DAR,"[2]; 96 h, pH 8.0, 22 °C",8.14
same,deconjugation events,[2]; incubation in GSH solutions (pH 7.4 or 8.0 for 18 hours),no deconjugation events
same,MS DAR-T = 0 h,[3],8.06
same,deconjugation events,[3]; storage in formulation buffer for one week,no deconjugation events
same,MS DAR-T = 168 h,[3],8.04
B2,anti-tumor activity compared with non-RO conjugator ADC (ADC4-B),H1650 cells,superior
same,anti-tumor activity,H1650 cells,potent anti-tumor activities
same,DAR8 Species HIC Retention Time (min) (Method 1),[1],9.898 min
same,MS DAR,"[2]; 18 h, pH 7.4, 22 °C",8.04
same,MS DAR,"[2]; 18 h, pH 7.4, 37 °C",8.02
same,MS DAR,"[2]; 18 h, pH 8.0, 22 °C",8.04
same,MS DAR-T = 0 h,[3],8.02
same,MS DAR-T = 168 h,[3],8.08
B3,DAR8 Species HIC Retention Time (min) (Method 1),[1],9.877 min
same,MS DAR,"[2]; 72 h, pH 7.4, 22 °C",7.94
same,MS DAR,"[2]; 72 h, pH 7.4, 37 °C",7.96
same,MS DAR,"[2]; 72 h, pH 8.0, 22 °C",7.94
same,MS DAR-T = 0 h,[3],8.00
same,MS DAR-T = 168 h,[3],8.02
B4,DAR8 Species HIC Retention Time (min) (Method 1),[1],10.444 min
B5,DAR8 Species HIC Retention Time (min) (Method 1),[1],10.883 min
B6,DAR8 Species HIC Retention Time (min) (Method 1),[1],10.860 min
B7,DAR8 Species HIC Retention Time (min) (Method 1),[1],9.948 min
same,MS DAR,"[2]; 18 h, pH 7.4, 22 °C",8.34
same,MS DAR,"[2]; 18 h, pH 7.4, 37 °C",8.48
same,MS DAR,"[2]; 18 h, pH 8.0, 22 °C",8.34
same,MS DAR-T = 0 h,[3],8.12
same,MS DAR-T = 168 h,[3],8.18
